Measured values taken from the supplement of paper PMC3334620.
Whole data set: some 33,000 sequences, median “E-score (-0.5 to 0.5)” near -0.041, cut for the highest 2% near 0.37. Some of the results follow.

These sequences were tested against T1, Ecm22 (UniProt Q05958) (assay: PBM E-score (8-mer binding enrichment) (E-score (-0.5 to 0.5)); higher = stronger / more preferred TF binding; most listed sequences are background and not binding sites). Conditions: protein concentration: 200 nM; construct: GST-full length.
T1 sequence: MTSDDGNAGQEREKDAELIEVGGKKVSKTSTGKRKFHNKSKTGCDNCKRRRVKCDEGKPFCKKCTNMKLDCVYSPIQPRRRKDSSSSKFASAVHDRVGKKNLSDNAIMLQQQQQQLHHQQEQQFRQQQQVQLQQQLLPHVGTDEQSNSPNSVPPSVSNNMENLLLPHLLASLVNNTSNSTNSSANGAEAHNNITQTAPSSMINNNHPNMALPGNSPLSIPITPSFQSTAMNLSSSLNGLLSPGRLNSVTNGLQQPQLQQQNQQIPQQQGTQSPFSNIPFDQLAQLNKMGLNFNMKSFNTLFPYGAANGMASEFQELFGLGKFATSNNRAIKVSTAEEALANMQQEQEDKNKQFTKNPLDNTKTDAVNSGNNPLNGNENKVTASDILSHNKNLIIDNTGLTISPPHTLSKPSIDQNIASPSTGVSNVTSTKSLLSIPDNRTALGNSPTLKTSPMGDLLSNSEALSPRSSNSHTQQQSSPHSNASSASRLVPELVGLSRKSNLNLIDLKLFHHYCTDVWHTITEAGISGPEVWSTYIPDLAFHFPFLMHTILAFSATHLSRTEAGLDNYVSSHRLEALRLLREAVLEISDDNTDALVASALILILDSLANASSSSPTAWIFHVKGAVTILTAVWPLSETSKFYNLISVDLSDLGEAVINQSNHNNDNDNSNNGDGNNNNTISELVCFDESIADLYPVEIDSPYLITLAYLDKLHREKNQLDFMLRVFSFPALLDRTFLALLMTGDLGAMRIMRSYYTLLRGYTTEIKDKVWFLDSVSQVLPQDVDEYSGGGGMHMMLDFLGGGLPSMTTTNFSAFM
In short: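 Universal all-10-mer Agilent arrays, double-stranded by primer extension on fresh or once-stripped slides, were probed with about 100-200 nM GST-tagged yeast transcription factors made by PURExpress. Fluorescent anti-GST detected bound protein, and masliner normalised the scans. E-scores from the Universal PBM Analysis Suite were given to each ungapped eight-base word pooled with its reverse complement.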

Row | Sequence | PBM E-score
1 | GTCGTTTA | 0.491
2 | CAGGAAGG | -0.357
3 | CTTCCATA | -0.201
4 | CAGGTAGA | -0.0317
5 | ACCCCAGT | -0.0793
6 | AGATGATG | -0.0193
7 | GGCCGTTA | 0.0322
8 | GGGGGGCA | -0.219
9 | TGACCCCA | -0.206
10 | AGTTAACG | 0.261
11 | ACGGGCTG | 0.061
12 | GGCTAGCC | -0.146
13 | TCGGTAGA | 0.0315
14 | CAGTCTAA | 0.0425
15 | ATTATTGC | 0.109
16 | CCGCCCGC | 0.096
17 | CCTTGTAA | 0.0622
18 | AAGCCTCG | 0.139
19 | GATCAGAC | -0.185
20 | TAGATTAA | 0.177
21 | ACACTAAT | 0.0687
22 | CGGCTGTC | 0.0324
23 | CCCCTGTA | -0.133
24 | AACAATCC | -0.0494
25 | CAATCAAA | -0.0176

Row | Sequence | PBM E-score
26 | AGACTCTA | -0.00932
27 | CCTTCGAA | -0.2
28 | CGAGCGTC | 0.196
29 | CCCGGCTC | -0.118
30 | ACGAATAC | 0.26
31 | AGTTGTGA | -0.0643
32 | AATACGGC | 0.268
33 | GGAAACAA | 0.0422
34 | ACACCATG | -0.217
35 | CCAAACAA | -0.0688
36 | GCAGGAGC | -0.1
37 | CACGTCGC | 0.0933
38 | ATCCACAA | -0.167
39 | ATTCCTTC | -0.0434
40 | GAGATATA | 0.0889
41 | CTATCGGC | -0.2
42 | CGTTGTGC | 0.116
43 | AAGGCGAC | -0.111
44 | ACGGCAGT | 0.239
45 | CAGCTGAC | -0.161
46 | CACACTCG | 0.188
47 | CGGGGCGA | 0.0991
48 | AGTACGAT | 0.407
49 | CAGTAGGC | -0.0515
50 | AACCCAAG | -0.132

Row | Sequence | PBM E-score
51 | GTTATATA | 0.057
52 | CCGCGCGA | 0.117
53 | TGTACGAA | 0.48
54 | ATCAACTC | 0.0707
55 | CTCGAGAC | 0.102
56 | AAGTTGCA | -0.0597
57 | AAGCGGCA | 0.0699
58 | GAAGCAAA | -0.142
59 | ACCAACTC | -0.0123
60 | ACGCCAGT | 0.0663
61 | AGTCTAAA | -0.107
62 | CTTATACC | 0.028
63 | CCAGAAAC | 0.0195
64 | GGGGCCCC | -0.277
65 | CTTCCGAC | -0.0229
66 | GTTTCGTA | 0.44
67 | CTTGTGGC | -0.239
68 | ATTATAAT | 0.139
69 | GTACGTTA | 0.343
70 | ACCTCCGT | 0.00722
71 | CACTTAAC | 0.0547
72 | ACAATCAG | -0.0188
73 | CACGGCAC | -0.106
74 | GGGTCTTA | -0.247
75 | TGCTTCAA | -0.27

Row | Sequence | PBM E-score
76 | ACATTCCA | -0.103
77 | ATCCCAGA | -0.278
78 | TCTATGAA | 0.00491
79 | CCAAAACA | -0.175
80 | CCACAGAG | -0.00864
81 | ACCTGCCA | -0.151
82 | GGCTGCAA | -0.248
83 | TGTGGTAA | -0.0312
84 | AGTCACAT | -0.0411
85 | TAATCGGA | 0.16
86 | ATCCTCGA | -0.0772
87 | CTCACAAC | 0.0387
88 | CGTTAAGA | 0.222
89 | ACGGAAAA | 0.175
90 | CGCGAGAG | 0.233
91 | AACCGGAC | -0.0924
92 | ATGGTCAC | -0.0259
93 | ACCTCTCG | 0.104
94 | AGGCAGTG | -0.149
95 | ATGTAGCG | 0.0835
96 | ATAGAGGA | -0.188
97 | AGGCCGCC | -0.266
98 | GAGATCCC | -0.109
99 | ACCGGCCA | -0.0895
100 | AATGGATC | -0.018

Row | Sequence | PBM E-score
101 | ACCTCAGA | -0.319
102 | GAGATAAA | 0.0228
103 | AAACATCC | -0.0305
104 | CTACACGA | 0.315
105 | AACATGAG | -0.126
106 | ATGGCAAA | -0.136
107 | AATGTATC | 0.0552
108 | AGAAGAAC | 0.0485
109 | CGCATGAA | 0.178
110 | CACACACA | -0.0219
111 | AGGCACAT | -0.166
112 | CCTGCGAA | 0.00017
113 | GCGTCGAA | 0.0462
114 | CAGCAGAA | 0.0354
115 | CCCATCCC | -0.215
116 | CTAACTAG | -0.0303
117 | AAAACCGA | 0.298
118 | AGCAGGGA | -0.269
119 | ATTAATCA | 0.0695
120 | CCTGAAGA | 0.0204
121 | GAACGACC | 0.451
122 | TCATGACA | 0.124
123 | TCCCGTCA | -0.085
124 | CTCCACAG | -0.248
125 | CGCGATGA | 0.126

Row | Sequence | PBM E-score
126 | AATCGAGG | 0.0537
127 | AATGTCTG | -0.0966
128 | AATAGAGT | -0.0278
129 | CAAGTGAG | -0.224
130 | CAATGTAA | 0.0818
131 | TAAAACGA | 0.362
132 | ATGTACCC | -0.151
133 | ACAACCAG | -0.0366
134 | CAAGAGGG | -0.262
135 | ACCACCCG | -0.112
136 | AACGTATG | 0.207
137 | TACGGGAA | 0.356
138 | AGGAGTTA | -0.0226
139 | CGGGAGAA | -0.0353
140 | AGGGCTAT | -0.384
141 | ACCTAGTC | -0.109
142 | CCTCATGA | -0.0913
143 | TCACATCA | -0.104
144 | GACCACCC | -0.188
145 | ATCCGTTG | 0.0365
146 | TACACGAA | 0.31
147 | ATGGATGA | -0.0351
148 | AAGCCTTG | 0.0277
149 | ACGTAAGT | 0.0968
150 | CCTATCCA | -0.284

Row | Sequence | PBM E-score
151 | ACCTTGAA | -0.0857
152 | CCGGAGCC | 0.0458
153 | GCCTGGCC | -0.178
154 | ATACGATA | 0.458
155 | GACTATGC | 0.16
156 | ACTATGAC | -0.108
157 | ATTTGTCG | 0.155
158 | AAATTACG | 0.126
159 | ACGAACTG | 0.289
160 | AGGGATGC | -0.223
161 | TCATATCA | -0.0529
162 | CCATCCAC | -0.202
163 | AACTGATC | 0.04
164 | CCGCAACG | 0.377
165 | ATTATCAA | 0.0606
166 | ATAGGGTG | -0.2
167 | GTTGGATA | -0.123
168 | AGTCATCC | -0.121
169 | CATAAGGA | -0.0351
170 | GCGCGTAC | 0.261
171 | CAGCCCGG | -0.117
172 | CCCATCGG | 0.0599
